We go through 2 compounds from article PMC4300089, “Structure-Guided Design of Selective Epac1 and Epac2 Agonists” (PLoS Biology, 2015).

Molecules are shown by their SMILES. The source gives many values for each of these; only a part stands here.

In this experiment the target is T1, Epac2^Δ280 (Mus musculus, UniProt Q9EQZ6).
T1 construct: made in house
T1 sequence (Q9EQZ6 281-993 isoform Q9EQZ6-3): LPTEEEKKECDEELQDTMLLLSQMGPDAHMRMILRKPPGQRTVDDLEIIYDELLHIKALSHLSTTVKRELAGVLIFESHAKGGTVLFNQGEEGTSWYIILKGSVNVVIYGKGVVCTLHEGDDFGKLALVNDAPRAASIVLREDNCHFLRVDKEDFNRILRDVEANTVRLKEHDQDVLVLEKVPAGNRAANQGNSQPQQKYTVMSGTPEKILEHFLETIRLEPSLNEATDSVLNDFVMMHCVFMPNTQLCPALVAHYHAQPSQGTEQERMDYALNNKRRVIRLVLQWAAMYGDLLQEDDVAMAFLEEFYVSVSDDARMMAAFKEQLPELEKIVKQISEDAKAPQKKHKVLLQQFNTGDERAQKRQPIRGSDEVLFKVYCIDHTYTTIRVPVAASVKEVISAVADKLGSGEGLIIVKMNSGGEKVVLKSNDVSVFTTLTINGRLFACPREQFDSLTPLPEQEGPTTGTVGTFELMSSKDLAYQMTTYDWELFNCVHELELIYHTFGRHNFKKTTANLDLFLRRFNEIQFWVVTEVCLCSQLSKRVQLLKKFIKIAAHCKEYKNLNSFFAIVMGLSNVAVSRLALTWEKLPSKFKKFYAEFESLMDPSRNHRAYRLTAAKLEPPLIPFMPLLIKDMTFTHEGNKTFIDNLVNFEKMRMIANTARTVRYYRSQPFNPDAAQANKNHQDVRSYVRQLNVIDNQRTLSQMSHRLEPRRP
Nature of the experiment: Epac activation assay (Rap1B•mGDP fluorescence nucleotide exchange), Epac2^Δ280. It counts as biochemical. The procedure: Murine Epac2 was used as all previous structural studies were performed with it.
The activity of Epac was determined by a fluorescence assay. […] The fluorescence intensity of Rap1B•mGDP is approximately twice that of free mGDP, and thus, nucleotide exchange can be observed as a decay in fluorescence upon the addition of excess unlabeled GDP.

`Nc1ncnc2c1nc(SCc1ccccc1)n2[C@@H]1O[C@@H]2CO[P@](O)(=S)O[C@H]2[C@H]1O` [S-220, Sp-8-BnT-cAMPS] registered a kobs (0.003 μM compound) of 6.6e-05 s⁻¹; a kobs (0.005 μM compound) of 8.7e-05 s⁻¹; a kobs (0.008 μM compound) of 0.000124 s⁻¹; a kobs (0.01 μM compound) of 0.000139 s⁻¹; a kobs (0.02 μM compound) of 0.000268 s⁻¹; a kobs (0.03 μM compound) of 0.000364 s⁻¹. Moreover, the kobs worked out at 0.00192 s⁻¹ (0.8 μM compound); 0.00206 s⁻¹ (1 μM compound); 0.00234 s⁻¹ (2 μM compound); 0.00241 s⁻¹ (3 μM compound); 0.00238 s⁻¹ (4 μM compound); 0.00238 s⁻¹ (5 μM compound). The kobs reads like this: (6 μM compound) 0.00231 s⁻¹; (7 μM compound) 0.00237 s⁻¹; (8 μM compound) 0.00235 s⁻¹; (10 μM compound) 0.00231 s⁻¹.

Take `Nc1ncnc2c1ncn2[C@@H]1O[C@@H]2COP(=O)(O)O[C@H]2[C@H]1O` [cAMP, reference compound]: the kobs runs as follows: (0.01 μM compound) 2.7e-05 s⁻¹; (0.05 μM compound) 3.5e-05 s⁻¹; (0.08 μM compound) 4.1e-05 s⁻¹; (0.1 μM compound) 4.5e-05 s⁻¹; (0.2 μM compound) 6.7e-05 s⁻¹; (0.3 μM compound) 8.4e-05 s⁻¹. In addition, the kobs is, setting by setting: (40 μM compound) 0.000337 s⁻¹; (50 μM compound) 0.000335 s⁻¹; (60 μM compound) 0.000327 s⁻¹; (70 μM compound) 0.000333 s⁻¹; (80 μM compound) 0.000332 s⁻¹; (100 μM compound) 0.000328 s⁻¹.
